Reference: paper PMC5370187
These are yes or no findings as the source states them, for the method shown. Binding seen in cells or lysates may run through a third protein. Some entries that bind do so weakly or less than the wild type.

By UniProt entry, the sequences of proteins in these tests, tags left out.
UniProt B0B9A0: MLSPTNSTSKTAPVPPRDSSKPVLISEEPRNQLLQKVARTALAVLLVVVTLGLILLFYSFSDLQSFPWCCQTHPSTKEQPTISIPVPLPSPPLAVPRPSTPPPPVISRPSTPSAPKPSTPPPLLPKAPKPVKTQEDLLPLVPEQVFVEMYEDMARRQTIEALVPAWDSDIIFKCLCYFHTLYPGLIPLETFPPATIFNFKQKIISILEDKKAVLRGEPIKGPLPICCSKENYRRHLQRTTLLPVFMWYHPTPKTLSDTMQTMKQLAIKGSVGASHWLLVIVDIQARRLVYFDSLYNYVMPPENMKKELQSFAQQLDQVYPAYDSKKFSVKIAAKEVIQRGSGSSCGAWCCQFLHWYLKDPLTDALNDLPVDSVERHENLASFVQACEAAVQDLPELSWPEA
UniProt B0B999: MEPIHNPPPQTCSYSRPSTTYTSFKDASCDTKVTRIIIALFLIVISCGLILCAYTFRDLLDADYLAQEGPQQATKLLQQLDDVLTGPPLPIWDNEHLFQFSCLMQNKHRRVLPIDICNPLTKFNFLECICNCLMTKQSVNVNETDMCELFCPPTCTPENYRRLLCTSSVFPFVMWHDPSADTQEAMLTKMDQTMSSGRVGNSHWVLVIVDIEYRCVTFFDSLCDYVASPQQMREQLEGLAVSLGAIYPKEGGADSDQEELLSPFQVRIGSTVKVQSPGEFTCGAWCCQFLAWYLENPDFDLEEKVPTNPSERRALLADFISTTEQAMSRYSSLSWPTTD
UniProt Q07820: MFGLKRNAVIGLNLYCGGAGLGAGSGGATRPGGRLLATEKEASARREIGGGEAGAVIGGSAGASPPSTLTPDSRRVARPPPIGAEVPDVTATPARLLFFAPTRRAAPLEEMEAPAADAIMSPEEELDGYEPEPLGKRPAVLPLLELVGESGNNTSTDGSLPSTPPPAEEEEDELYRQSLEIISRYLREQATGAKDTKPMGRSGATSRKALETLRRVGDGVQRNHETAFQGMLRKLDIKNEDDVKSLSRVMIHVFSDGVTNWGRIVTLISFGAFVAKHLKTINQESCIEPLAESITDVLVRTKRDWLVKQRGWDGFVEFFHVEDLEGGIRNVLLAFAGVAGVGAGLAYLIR

Key:
Experiment in all cases: co-IP
[1] = target: Cdu1-FLAG expressed in non-infected HEK-293T cells (C. trachomatis) (UniProt B0B9A0)
[2] = target: Cdu1-FLAG (chlamydial deubiquitinating enzyme 1, FLAG-tagged, expressed from the cdu1 locus of strain Ctr Cdu1-FLAG) (C. trachomatis) (UniProt B0B9A0)
[3] = target: Cdu1-FLAG overexpressed by strain Ctr pTet/Cdu1-FLAG (C. trachomatis) (UniProt B0B9A0)
[4] = target: Cdu2-FLAG overexpressed by strain Ctr pTet/Cdu2-FLAG (C. trachomatis) (UniProt B0B999)

In the case of “endogenous Mcl-1 of HEK-293T cells (from UniProt Q07820 1-350)”, the binding [1] is reported as “binds”.

In the case of “endogenous Mcl-1 of HeLa cells (from UniProt Q07820 1-350)”, the binding [2] is reported as “binds”, the binding [3] is reported as “binds” and the binding [4] is reported as “no binding”.

“endogenous p53 of HeLa cells (from UniProt P04637 1-393)” was tested, and the binding [2] was “no binding”.
